Each structure is given as a SMILES string.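 Interpolation was linear, between the two tested concentrations surrounding the appropriate level; five concentrations were tested over 48 hours in 96-well plates. Here, GI50 denotes the concentration required for 50% inhibition of growth.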 The source made the active and inactive calls. No stated cut-off is given here; in the data, active = GI50 up to about 1.1 µM and inactive = higher. A value given as a limit tells only on which side of the number the result lay.

The assay deals with NCI-H322M. The experiment in a line: NCI tumour cell line growth inhibition, 48 h.
With `COc1ccc(/C=C2/C(=O)N(C(=O)c3ccc(Cl)cc3)N=C2C)cc1OC`, the GI50 was inactive: > 100 µM. As for `O=C(CCCc1ccccn1)c1ccccc1`, the GI50 was inactive: > 100 µM.

With `O=C(O)c1ccc(C(=O)c2ccccc2C(=O)O)cc1C(=O)O`, the GI50 was inactive: > 100 µM.

For `COC(=O)C(=O)C(C(=O)C(=O)Nc1ccc(C)cc1)c1nc2ccc(C(=O)c3ccccc3)cc2nc1O` (configuration not stated), the GI50 was inactive: > 100 µM. Turning to `ClC(Cl)(Cl)C(N1CCN(c2ccccc2)CC1)N1CCN(c2ccccc2)CC1`, the GI50 was inactive: > 100 µM. Take `CN(C)Cc1cc(Cl)c(O)c(CN(C)C)c1`: the GI50 was inactive: > 100 µM. Turning to `O=C(O)C(Cl)(c1ccccc1)c1ccccc1`, the GI50 is inactive: > 100 µM.

As for `O=C(O)C1(Nc2ccc(Cl)cc2)CCCC1`, the GI50 is inactive: > 100 µM. `COC(=O)C1=CS/C(=C2\S[C@@H]3[C@H](S2)[C@H]2C=C[C@@H]3C2)S1`: the GI50 was inactive: > 100 µM. In the case of `O=C(NNC(=O)c1csc(NC(=S)NC2CCCCC2)n1)c1ccccc1`, the GI50 is inactive: 5.64 µM. The result for `C/C(=N/NC(=S)Nc1ccc(Cl)cc1)c1cccc(/C(C)=N\NC(=S)Nc2ccc(Cl)cc2)n1` reads inactive: 1.36 µM; that for `C1CSCCCSCCCSCCCSCCCSC1`, inactive: 44.3 µM; that for `CC(C)(C)OC/C=C1\C(=O)O[C@H]2C[C@@H](O[Si](C)(C)C(C)(C)C)C[C@@H]12`, inactive: > 100 µM. Take `CCOC(=O)c1cc2c3c(cc(OC)c2[nH]1)N(C(=O)OCC)CC3`: the GI50 was inactive: > 100 µM. The same measure for `Oc1c(Br)c(-c2ccccc2)nc2ccccc12`: inactive: > 100 µM; for `O=c1c2ccccc2n2c(-c3ccccc3O)nnc2n1-c1ccccc1`: inactive: > 100 µM; for `C/C=C(/COC(C)=O)C(=O)OC1C=C(C=O)C(C)(C)C=C1C` (configuration not stated): inactive: > 100 µM.

For the compound `CC(=O)N1N=C(N)CC1=O`, the GI50 was inactive: > 100 µM.

`O=C(N/N=C(/c1nc2ccc([N+](=O)[O-])cc2[nH]c1=O)C(O)c1ccc([N+](=O)[O-])cc1)c1ccncc1` (configuration not stated): the GI50 is inactive: > 100 µM. The same measure for `O=C1N=C(Nc2ccccc2Cl)SC1C(=O)Nc1ccc([N+](=O)[O-])cc1[N+](=O)[O-]` (configuration not stated): inactive: > 100 µM. In the case of `CC1=NN(C(=O)CC(=O)Nc2ccccc2Cl)C(=O)C1/N=N\c1ccc(S(=O)(=O)c2ccc(/N=N/C3C(=O)N(C(=O)CC(=O)Nc4ccccc4Cl)N=C3C)cc2)cc1` (configuration not stated), the GI50 is inactive: > 100 µM. Consider `CC(C)(C)C(=O)Nc1cccc2oc(-c3ccccc3)cc12`, for which the GI50 was inactive: > 100 µM. `CCCCCCCCCCCCCCCCOC[C@@H](COC(c1ccccc1)(c1ccccc1)c1ccccc1)O[PH](=S)OC` (some centres not stated): the GI50 was inactive: 2.9 µM. The result for `COc1cc(S(=O)(=O)Nc2nc(-c3ccc(/N=C/c4ccccc4O)cc3)cs2)ccc1Cl` reads inactive: 36.2 µM. In the case of `CC1(CC2=C(C(=O)NCCO[Si](C)(C)C(C)(C)C)C3(OCCO3)C2=O)OCCO1`, the GI50 is inactive: > 100 µM.

On to `COc1cc2c(cc1OC)C1c3ccccc3CCN1CC2` (configuration not stated), for which the GI50 is inactive: > 100 µM.

On to `C=C1CCC(O)C/C1=C/C=C1\CCCC2(C)C1CCC2C(C)CCCC(C)C` (configuration not stated), for which the GI50 is inactive: 34.6 µM. In the case of `Cc1ccc(S(=O)(=O)NC(=O)NS(=O)(=O)O)cc1`, the GI50 was inactive: > 100 µM. In the case of `C=C(C)C(=O)O[C@H]1CC2=CC(CC(C)=C[C@H]3OC(=O)C(=C)C13)OC2=O` (some centres not stated), the GI50 was inactive: > 100 µM. The result for `CCN1CCC(O)(/C=C/c2ccc(C)cc2C)C(C(=O)/C=C/c2ccc(C)cc2C)C1` (configuration not stated) reads inactive: 3.33 µM; that for `NC(=S)N/N=C1/CN(c2ccc(Cl)c(Cl)c2)CC(=O)C1c1nc2ccccc2s1` (configuration not stated), inactive: 37.7 µM; that for `O=C(O)c1ccccc1/C=N/N=C1c2ccccc2-c2ccccc21`, inactive: 25.1 µM.

In the case of `O=[N+]([O-])c1cc2c([N+](=O)[O-])cccc2o1`, the GI50 was inactive: 20 µM. The same measure for `CC(=O)OCC1OC(N2C(C)=C(C(C)=O)C(c3ccc(Cl)cc3)C(C#N)=C2S)C(OC(C)=O)C(OC(C)=O)C1OC(C)=O` (configuration not stated): inactive: > 100 µM. The result for `COc1ccc(C(=O)NCCN(C)C)c2nc3ccccc3nc12` reads inactive: 3.78 µM. The result for `C/C=C(\C)c1cc(O)c(C)c2c1Oc1cc(O)c(Cl)c(C)c1C(=O)O2` reads inactive: 38 µM; that for `Cc1cc(C)nc(NS(=O)(=O)c2ccc(NC(=O)c3cccc4c(Nc5ccc(S(=O)(=O)Nc6nc(C)cc(C)n6)cc5)c5ccccc5nc34)cc2)n1`, inactive: 20.8 µM; that for `COc1cc2cc(C(=O)N3CC(CCl)c4ccc(NCCN)cc43)[nH]c2c(OC)c1OC` (configuration not stated), active: 0.324 µM. Regarding `Cn1c(=O)c2c(n(C)c1=O)n1c(=O)c3ccccc3nc1n2C`, the GI50 is inactive: > 100 µM. The result for `CCOC(=O)CC(=O)C(=O)NN=C1NCCN1` reads inactive: > 100 µM. The same measure for `N#Cc1nc(-c2ccc(-c3nc(C#N)c(N)o3)cc2)oc1N`: inactive: > 10 µM. Consider `COc1ccc(-c2ccccc2)c2[nH]c3c(c12)CCNC3=O`, for which the GI50 is inactive: > 100 µM. Take `COc1ccc(-c2c3c(n(C4OC(COC(C)=O)C(OC(C)=O)C(OC(C)=O)C4OC(C)=O)c(=S)c2C#N)CCCC3)cc1` (configuration not stated): the GI50 is inactive: > 100 µM. The result for `CCOC(=O)NC(=O)c1cn(CCCO)c(=O)[nH]c1=O` reads inactive: > 100 µM; that for `CC(=O)Nc1ccc(C2C(C(=O)Nc3ccccc3)=C(C)NC(C)=C2C(=O)Nc2ccccc2)cc1`, inactive: > 100 µM; that for `COc1cc(C2(c3ncc[nH]3)SSSCC2O)ccc1O` (configuration not stated), inactive: > 69.3 µM.

As to `CCN(CC)CCN(/C(=N/c1ccccc1)N1CCCCC1)c1ccccc1`, the GI50 is inactive: 12 µM.

`COc1ccc2c3c([nH]c2c1CC=C(C)C)C(=O)C=C(C)C3=O`: the GI50 is inactive: > 25 µM. The result for `CC1=CP(=O)(c2ccccc2)C=C(C)C1=C(Cl)Cl` (configuration not stated) reads inactive: 5.83 µM; that for `CC1C(c2ccccc2)NC(c2ccccc2)CC1(N)C#N` (configuration not stated), inactive: > 100 µM.

On to `CC(C)[C@H](NC(=O)OCc1ccccc1)C(=O)N[C@H](/C=C/C(=O)OC(C)(C)C)CO`, for which the GI50 was inactive: > 100 µM.

In the case of `CC[C@]12C=CCN3CCC4(c5cc([C@@]6(C(=O)OC)CC7CN(CCc8c6[nH]c6ccccc86)C[C@@H]6CCC[C@H]76)c(OC)cc5N(C)C4[C@](O)(C(=O)OC)C1OC(C)=O)C32` (some centres not stated), the GI50 was active: 0.457 µM. The result for `COC(=O)[C@]1(C)CCC[C@]2(C)C3CC4OOC3(C=C4C(C)(C)O)CCC21` (some centres not stated) reads inactive: > 100 µM; that for `COc1cc2c(cc1O)[C@H](C)C(c1ccc(OC)c(OC)c1)O2` (some centres not stated), inactive: > 100 µM. In the case of `C=CCOn1c(C=C)nc2c(C)cccc21`, the GI50 was inactive: 4.28 µM. The same measure for `Nc1nc(=O)c2cc(NCc3ccc(C(=O)NC(CCC(=O)O)C(=O)O)cc3)ccc2[nH]1` (configuration not stated): inactive: > 100 µM.

With `O=Cc1c(Cn2ccnc2)c2cc([N+](=O)[O-])ccc2n1Cc1ccccc1`, the GI50 is inactive: 58.9 µM.
